Laboratory results taken from patent publication US20230174655A1 (published 2023).

Molecular target: T1, FcγRIIa type R extracellular domain with C-terminal His tag (human, UniProt P12318 34-217)
T1 construct: extracellular domain; also called FcγRIIa R; FcγRIIaR
T1 sequence (looked up): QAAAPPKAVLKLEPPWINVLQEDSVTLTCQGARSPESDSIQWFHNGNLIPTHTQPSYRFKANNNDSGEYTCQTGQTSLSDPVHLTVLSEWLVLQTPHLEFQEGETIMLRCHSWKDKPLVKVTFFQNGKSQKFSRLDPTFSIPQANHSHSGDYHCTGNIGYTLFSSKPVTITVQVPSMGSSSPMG
Test: SPR, antibody captured on Protein A, FcγR analyte, 1:1 kinetics

B1: IgG1-v1 (antibody)
heavy: QVQLQESGPGLVKPSETLSLTCAVSGHSISHDHAWSWVRQPPGEGLEWIGFISYSGITNYNPSLQGRVTISRDNSKNTLYLQMNSLRAEDTAVYYCARSLARTTAMDYWGEGTLVTVSS[here human IgG1 constant region with P238D (EU numbers) without letters]
light: DIQMTQSPSSLSASVGDRVTITCRASQDISSYLNWYQQKPGKAPKLLIYYTSRLHSGVPSRFSGSGSGTDFTFTISSLQPEDIATYYCQQGNTLPYTFGQGTKVEIKRTVAAPSVFIFPPSDEQLKSGTASVVCLLNNFYPREAKVQWKVDNALQSGNSQESVTEQDSKDSTYSLSSTLTLSKADYEKHKVYACEVTHQGLSSPVTKSFNRGEC
notes: H chain: IL6R-G1d with P238D (EU numbering); also called IL6R-G1d-v1/IL6R-L; copies: 2 + 2
- Kd: 12 µM
